# Reference: the supplement of paper PMC6206098
# ± gives the uncertainty stated by the source. The sequences are guide strands of siRNAs; only the seed at positions 2 to 7 varies.
# How the values were obtained:
# [1] = system: 3LL; experiment: cell viability relative to siNT1 control; higher = less toxic; details: concentration: 10 nM; 96 h; Mus musculus;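 note: Luminescence-based viability of cells reverse transfected in 384-well plates with lipid-complexed siRNAs built on a non-toxic 19mer backbone whose passenger strand carries 2′-O-methyl groups at positions 1 and 2, triplicates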
# Procedure: (§1)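 Arrayed screen of 4096 siRNA duplexes, each carrying one of all possible 6mer seeds at guide-strand positions 2-7 in a fixed neutral 19mer scaffold (constant flanks: U at position 1, then ACAUGUAAACCA, plus a 3' AA overhang). The passenger strand is 2'-O-methylated at positions 1-2 so only the guide strand loads into RISC. Duplexes were reverse-transfected at 10 nM with RNAiMAX in triplicate in 384-well plates; viability was read by CellTiter-Glo ATP content 96 h after transfection. Values are % viability normalised to lipid-only wells (HeyA8, H460, M565) or to siNT1 (3LL).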
# [2] = system: H460; experiment: cell viability relative to lipid-only control; HeyA8 human ovarian and H460 human lung cancer; M565 mouse liver and 3LL mouse lung cancer; siNT1 is a non-toxic control siRNA; higher = less toxic; details: concentration: 10 nM; 96 h; Homo sapiens
# Procedure: as §1
# [3] = system: HeyA8; experiment: as above; details: concentration: 10 nM; 96 h; Homo sapiens
# Procedure: as §1
# [4] = system: M565; experiment: as above; details: concentration: 10 nM; 96 h; Mus musculus
# Procedure: as §1
# 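Throughout, for cell viability relative to lipid-only control: reverse lipid transfection in 384-well plates, in triplicate, of duplexes on a non-toxic 19mer backbone with passenger strand 2′-O-methylated at positions 1 and 2, luminescence viability read-out.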
Sequence,cell viability [1] [%],cell viability [2] [%],cell viability [3] [%],cell viability [4] [%]
UUUCAGGACAUGUAAACCAAA,94.3 ± 3.8,34.9 ± 2.9,91.1 ± 6.4,50.8 ± 8.4
UUACUCUACAUGUAAACCAAA,32 ± 1.9,39.8 ± 1.5,40.8 ± 3.9,29.8 ± 3.1
UAUCGGGACAUGUAAACCAAA,91 ± 5.9,92.7 ± 18,101 ± 9,52.2 ± 13
UAUUUCUACAUGUAAACCAAA,22.7 ± 2.9,75.1 ± 3.9,52.1 ± 3,39.5 ± 3.8
UCUAACCACAUGUAAACCAAA,98.2 ± 12,36.7 ± 1.1,63.9 ± 3.2,59.6 ± 7.6
UCCUACUACAUGUAAACCAAA,78.8 ± 26,73.2 ± 4.8,50.6 ± 1,76 ± 2.7
UAUCUUCACAUGUAAACCAAA,33 ± 3.4,46.2 ± 3.2,38.7 ± 5.2,99.6 ± 20
UUUCGCCACAUGUAAACCAAA,89.2 ± 14,56.9 ± 4.4,88.1 ± 1.4,101 ± 14
UUCGUAUACAUGUAAACCAAA,101 ± 16,61.2 ± 9.1,73.9 ± 10,86 ± 3.5
UCGAAUUACAUGUAAACCAAA,91.7 ± 16,66.9 ± 8.9,84.4 ± 2.4,64.3 ± 9.6
UGCAGUAACAUGUAAACCAAA,82.2 ± 8.9,49.6 ± 3.9,58.1 ± 4.3,76.6 ± 3
UGCGUCAACAUGUAAACCAAA,72.5 ± 6.7,64.2 ± 1.9,71.9 ± 1.1,52.7 ± 1.4
UCGGGCUACAUGUAAACCAAA,24.1 ± 1.1,32.3 ± 0.35,6.17 ± 0.37,10 ± 1.8
UACCUGAACAUGUAAACCAAA,84.4 ± 2.9,63.9 ± 1.9,66.1 ± 4.6,83.4 ± 14
UCUAUGAACAUGUAAACCAAA,100 ± 19,47.8 ± 9.7,83 ± 5.6,73 ± 5.2
UUGGGUCACAUGUAAACCAAA,5.8 ± 3,23.7 ± 1.3,33.5 ± 6.1,17.6 ± 1.9
UCUGCACACAUGUAAACCAAA,89.8 ± 12,67.3 ± 3.7,84 ± 7.3,55.3 ± 11
UCGUACAACAUGUAAACCAAA,89.3 ± 14,75.9 ± 14,81.5 ± 4.8,92 ± 12
UAAUGUCACAUGUAAACCAAA,48.6 ± 5.9,100 ± 5.4,80.3 ± 7.4,23.4 ± 7.2
UGAAGUCACAUGUAAACCAAA,31.7 ± 9.3,12 ± 1.4,3.83 ± 0.38,4.24 ± 0.27
UGCUGCCACAUGUAAACCAAA,9.04 ± 2.6,14.6 ± 1.6,16.1 ± 2,19.4 ± 11
UCAAAAAACAUGUAAACCAAA,93.3 ± 11,65.4 ± 4.5,84.3 ± 7.3,78.6 ± 7.7
UCUUAACACAUGUAAACCAAA,89.2 ± 13,72.7 ± 4.2,91.4 ± 12,84.2 ± 22
UACAACUACAUGUAAACCAAA,11.7 ± 4.4,66.1 ± 6.9,36.4 ± 6.7,51.9 ± 8.9
UUGUAGAACAUGUAAACCAAA,62 ± 6.4,63.7 ± 6.3,59.9 ± 4.4,29.1 ± 8.2
UGCCCAUACAUGUAAACCAAA,52.6 ± 5.8,71.3 ± 8.4,48.2 ± 4.5,28 ± 11
UAACUCUACAUGUAAACCAAA,65 ± 10,69.9 ± 14,48.7 ± 6.6,38.4 ± 1.5
UUCGGGUACAUGUAAACCAAA,2.67 ± 0.65,15.9 ± 2.6,67 ± 7.7,28.4 ± 3.6
UAAUUAAACAUGUAAACCAAA,116 ± 6.3,93.6 ± 3.8,96.6 ± 11,92.3 ± 22
